The values that follow come from the supplement of paper PMC3334620.

In all, about 33,000 sequences were measured (“E-score (-0.5 to 0.5)”: median about -0.056, highest 2% from about 0.38 on). Some of the results follow.

The target of this assay is Stb4 (UniProt P50104). The assay can be described thus: PBM E-score (8-mer binding enrichment) (E-score (-0.5 to 0.5)); higher = stronger / more preferred TF binding; most listed sequences are background and not binding sites. To be noted: protein concentration: 200 nM; construct: GST-DNA-binding domain. In a few lines: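 Each ungapped eight-base word and its reverse complement, pooled, received an E-score from the Universal PBM Analysis Suite. Underlying scans, normalised with masliner, recorded fluorescent anti-GST bound to GST-tagged yeast transcription factors. These were applied at about 100-200 nM to universal all-10-mer Agilent arrays double-stranded by primer extension.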
Turning to GACGGCGC, the “PBM E-score” value came to 0.0126.

Regarding AGCGCAAA, the “PBM E-score” value was -0.0911.

Consider GAACATCC, for which the “PBM E-score” value is 0.305.

With CCCATACC, the “PBM E-score” value is 0.105.

ACGAAGCC: the “PBM E-score” value came out at 0.0612.

In the case of GACCACGA, the “PBM E-score” value is -0.259.

As for ATGACGTG, the “PBM E-score” value was -0.174.

With CACGCGTA, the “PBM E-score” value is -0.13.

In the case of CTGTACCA, the “PBM E-score” value is -0.188.

AATGCTGC: the “PBM E-score” value is -0.188.

ACACTAAG: the “PBM E-score” value was -0.375.

TCTATGCA: the “PBM E-score” value was -0.29.

On to GGAAAAAC, for which the “PBM E-score” value was determined as 0.22.

Regarding GTGCTAGA, the “PBM E-score” value was -0.254.

Take GCAGTGAC: the “PBM E-score” value was -0.118.

For the sequence GGCATTCA, the “PBM E-score” value was 0.0135.

With AGGAATAT, the “PBM E-score” value came to 0.144.

In the case of ATTAGGCA, the “PBM E-score” value was -0.144.

Regarding CGAGACGA, the “PBM E-score” value was determined as 0.132.

For the sequence GGCGCCCC, the “PBM E-score” value is -0.0201.

With AAACCGGC, the “PBM E-score” value was found to be 0.26.

As to GCTTGCAC, the “PBM E-score” value was -0.107.

On to CCTATCAC, for which the “PBM E-score” value was -0.223.

As to CTGTCTCC, the “PBM E-score” value stood at 0.0443.

Take ACGCTCCT: the “PBM E-score” value was -0.27.

As for TACAGGTA, the “PBM E-score” value is -0.151.

As to AAATCACT, the “PBM E-score” value was -0.176.

Take AGCGCATC: the “PBM E-score” value was -0.0401.

As for TGCTGAAA, the “PBM E-score” value is -0.154.

For the sequence ATGCCATG, the “PBM E-score” value was -0.0915.

For the sequence CATCGCGG, the “PBM E-score” value came to 0.0818.

Consider GGACAGCC, for which the “PBM E-score” value turned out to be 0.132.

With GGCCGACA, the “PBM E-score” value is 0.209.

Regarding CGCAGCCC, the “PBM E-score” value was -0.00709.

As to GCGCTAGC, the “PBM E-score” value was -0.199.

AACCCTCA: the “PBM E-score” value is -0.148.

Turning to CGGCTTCC, the “PBM E-score” value was found to be 0.29.

Turning to AGCGGCCG, the “PBM E-score” value is 0.158.

For ATCAATCA, the “PBM E-score” value was -0.109.

CGGCTGAA: the “PBM E-score” value came out at 0.253.

Regarding CACATTGG, the “PBM E-score” value was -0.111.

As for GCAAGACC, the “PBM E-score” value is -0.0268.

Turning to CCTTCGGC, the “PBM E-score” value was determined as 0.335.

TAGGTTGA: the “PBM E-score” value was -0.012.

On to ATCTGGAG, for which the “PBM E-score” value was -0.138.

For the sequence CCGTGTGC, the “PBM E-score” value came out at 0.151.

Take GGGAGAAA: the “PBM E-score” value stood at 0.115.

Turning to GTGTATTA, the “PBM E-score” value is -0.0717.

In the case of CAGGTTGC, the “PBM E-score” value is -0.0961.

Take CCGGCTAG: the “PBM E-score” value came out at 0.317.

On to GGCCACCC, for which the “PBM E-score” value was found to be 0.0792.

On to AGTGCACT, for which the “PBM E-score” value was 0.0616.

Turning to AGGCTGCA, the “PBM E-score” value was -0.147.

On to ACTGAACT, for which the “PBM E-score” value was -0.124.

On to GACCTATA, for which the “PBM E-score” value was found to be 0.103.

In the case of AGAGACGG, the “PBM E-score” value was -0.0612.

AGGTGTGA: the “PBM E-score” value is 0.0116.

For the sequence ATAGCAAC, the “PBM E-score” value is -0.0565.

As for AAGAGGGA, the “PBM E-score” value was -0.281.

With CGACGCAA, the “PBM E-score” value turned out to be 0.135.

With TCGCCGCA, the “PBM E-score” value is -0.0352.

In the case of ACTAGTGG, the “PBM E-score” value is -0.151.

With AGTCTGTC, the “PBM E-score” value is -0.215.

As for TAGGCGAA, the “PBM E-score” value was -0.331.

On to AGGACCTA, for which the “PBM E-score” value was found to be 0.00979.

Turning to AACAACGA, the “PBM E-score” value is -0.133.

CAGGGCGG: the “PBM E-score” value was determined as 0.0304.

Regarding AATGACAA, the “PBM E-score” value is -0.0973.

For AGGTCACA, the “PBM E-score” value is -0.146.

With GCGGTCAC, the “PBM E-score” value came out at 0.052.

As to AGCGTCGG, the “PBM E-score” value was determined as 0.305.

For the sequence TAATACCA, the “PBM E-score” value is -0.00115.

As to ACAGAGAG, the “PBM E-score” value is -0.234.

In the case of AACTTCTA, the “PBM E-score” value was -0.223.

For the sequence CCAGTTTA, the “PBM E-score” value is -0.14.

Turning to ACGAGACC, the “PBM E-score” value is -0.0429.

In the case of CGCAGGCG, the “PBM E-score” value was -0.12.

Regarding AGCGATAG, the “PBM E-score” value is -0.175.

Regarding CCATGTTA, the “PBM E-score” value is -0.177.

As to CCTCGTAA, the “PBM E-score” value was -0.0164.

In the case of CTTTGAAA, the “PBM E-score” value was -0.226.

On to TCAGTCCA, for which the “PBM E-score” value is -0.185.

As for GCTGTCCA, the “PBM E-score” value is -0.0665.

On to AAGCTAGT, for which the “PBM E-score” value was -0.189.

AACCAATT: the “PBM E-score” value is -0.0719.

For the sequence AACCGCTA, the “PBM E-score” value was -0.134.

Regarding CGTCAAAC, the “PBM E-score” value is 0.0267.

Consider ATCAATAA, for which the “PBM E-score” value is -0.101.

Regarding AAGTCGAA, the “PBM E-score” value is -0.279.

For CGCTGCGC, the “PBM E-score” value was -0.0608.

With ATCTCGCC, the “PBM E-score” value is 0.0501.

For the sequence TCCGGCCA, the “PBM E-score” value was 0.287.

In the case of ATACGTTG, the “PBM E-score” value was -0.277.

For the sequence CGCATCAC, the “PBM E-score” value was -0.0184.
